PMC4336329 (PLoS ONE, 2015)
The whole screen tested about 310,000 compounds, of which about 2,200 (0.71%) showed an effect of 50% or more. Effects have a minus sign here. The list shows a part of the results.

molecular target: human ether-à-go-go-related gene (hERG) potassium channel (human, UniProt Q12809); experiment: primary screen, population patch clamp on CHO cells stably expressing hERG
Sequence (Q12809 whole entry, looked up): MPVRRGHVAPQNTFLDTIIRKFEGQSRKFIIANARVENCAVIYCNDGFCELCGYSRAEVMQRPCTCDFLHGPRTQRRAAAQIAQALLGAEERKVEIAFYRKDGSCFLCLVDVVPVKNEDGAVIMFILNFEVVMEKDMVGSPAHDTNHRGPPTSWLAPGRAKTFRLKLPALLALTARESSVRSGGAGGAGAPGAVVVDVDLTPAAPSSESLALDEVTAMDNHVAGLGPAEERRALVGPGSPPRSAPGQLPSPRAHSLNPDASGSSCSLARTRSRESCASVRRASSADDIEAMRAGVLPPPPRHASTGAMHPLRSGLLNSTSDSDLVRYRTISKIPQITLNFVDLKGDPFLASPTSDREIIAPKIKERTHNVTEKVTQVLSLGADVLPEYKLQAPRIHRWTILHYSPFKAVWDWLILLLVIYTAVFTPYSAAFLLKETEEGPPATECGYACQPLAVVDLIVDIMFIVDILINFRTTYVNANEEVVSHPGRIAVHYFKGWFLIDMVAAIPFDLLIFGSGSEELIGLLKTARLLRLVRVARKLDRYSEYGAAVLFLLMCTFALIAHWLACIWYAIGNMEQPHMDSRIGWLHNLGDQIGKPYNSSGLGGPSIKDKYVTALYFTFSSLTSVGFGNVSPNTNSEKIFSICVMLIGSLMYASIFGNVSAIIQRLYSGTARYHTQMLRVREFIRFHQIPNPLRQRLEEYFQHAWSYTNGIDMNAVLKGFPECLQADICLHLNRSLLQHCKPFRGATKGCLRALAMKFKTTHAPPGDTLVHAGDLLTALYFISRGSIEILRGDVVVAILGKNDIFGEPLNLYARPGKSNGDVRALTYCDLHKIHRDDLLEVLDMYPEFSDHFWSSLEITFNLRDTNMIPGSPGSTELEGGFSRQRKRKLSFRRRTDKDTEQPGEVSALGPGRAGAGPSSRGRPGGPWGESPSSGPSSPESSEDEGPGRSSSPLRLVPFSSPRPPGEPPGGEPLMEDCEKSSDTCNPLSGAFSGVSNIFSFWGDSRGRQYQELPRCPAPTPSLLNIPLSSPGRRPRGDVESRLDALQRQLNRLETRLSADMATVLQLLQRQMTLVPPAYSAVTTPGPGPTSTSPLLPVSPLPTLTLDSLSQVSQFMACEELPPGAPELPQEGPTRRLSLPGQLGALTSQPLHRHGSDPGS

| SMILES | hERG current change (%, negative = inhibition) at 1uM |
| --- | --- |
| CCN1C(=O)[C@@H]2[C@@H](c3ccc(-c4ccc(OC)cc4)cc3)N3CCC[C@@]3(C(=O)OC)[C@@H]2C1=O.O=C(O)C(F)(F)F | 4.57% |
| CCOC(=O)N1CCC(NC(=O)c2ccc(Cl)cc2)CC1 | 9.62% |
| Cc1ccc(C2C3=C(CCCC3=O)OC3=C2C(=O)CCC3)cc1 | 0.776% |
| COc1ccc(CCNC(=O)c2cc(=O)[nH]c3ccc(Br)cc23)cc1OC | 16.1% |
| CCc1nc2ccccc2c(C(=O)OCC(=O)Nc2cccc(S(=O)(=O)N3CCOCC3)c2)c1C | 7.53% |
| O=C(c1ccc(F)cc1)N1CCN2C(=O)c3ccccc3C12c1ccccc1 (stereo not drawn) | 14.1% |
| COc1ccc(OCC(=O)N/N=C2/C=C(C)CC2)cc1 | 8.3% |
| CC1=NN(c2ccc(C)c(C)c2)C(=O)/C1=C/c1ccc2c(c1)n(C)c(=O)n2C | 2.22% |
| CC(C)OCCCNC(=O)c1ccc(C2SCC(=O)N2Cc2ccco2)cc1 (stereo not drawn) | 4.31% |
| N=C1/C(=C/c2cccn2-c2ccc([N+](=O)[O-])cc2)C(=O)N=C2SC=CN12 | 4% |
| Cc1cccc2c1-c1sc(C(=O)Nc3cccc([N+](=O)[O-])c3C)cc1CO2 | 3.86% |
| O=C(CSc1ccccn1)Nc1cccc([N+](=O)[O-])c1 | 11.1% |
| CC(C)c1nnc(NC(=O)CCC(=O)NC2CCCCC2)s1 | 7.26% |
| CCc1nc2scc(-c3ccc(C)cc3)c2c(=O)n1N | 10.4% |
| CC(C)C(NC(=O)OCc1ccccc1)C(=O)OCC(=O)N1C(C)CCCC1C (stereo not drawn) | 9.04% |
| CCOc1ccc(CCNC(=O)c2cccc(N3CCCC3=O)c2)cc1OCC | 5.16% |
| O=C(CSc1nc2ccccc2nc1N1CCCCC1)N1CCN(c2ccccc2)CC1 | 10.2% |
| COc1cc(/C=C2\CC/C(=C\c3cc(OC)c(OC)c(OC)c3)C2=O)cc(OC)c1OC | 16.9% |
| COc1ccc(-c2nc(C(=O)NCC3CCCO3)cc3c2[nH]c2ccccc23)cc1 (stereo not drawn) | 2.28% |
| COc1ccc(OC)c2c1CCC2=O | 15.1% |
| COc1cccc(/C=C2\SC(=S)N(C(Cc3ccccc3)C(=O)O)C2=O)c1 (stereo not drawn) | 22.6% |
| CCN(CC(=O)NCc1ccc(F)cc1)C(=O)Cc1ccc(OC)cc1 | -37.8% |
| O=C(COC(=O)CCCNC(=O)c1ccc(Cl)cc1)NCc1ccccc1Cl | -2.65% |
| N#C/C(=C/c1ccc(OCc2ccc(C(=O)O)cc2)c(Br)c1)c1cccc(F)c1 | 15.6% |
| CCOC(=O)N1CCN(C(=O)CNC(=O)c2ccc(Br)cc2)CC1 | -16.1% |
| COc1ccccc1-c1ccc(NC2CCCC2)nn1 | 3.71% |
| Cc1ccc(S(=O)(=O)N(C)C)cc1NC(=O)COC(=O)C1=COCCO1 | 4.26% |

| SMILES | hERG current change (%, negative = inhibition) at 1uM |
| --- | --- |
| Cc1ccccc1CC(=O)c1ccc(O)c(C)c1O | 5.56% |
| CCn1cc(CNC(=O)CC2C(=O)NCCN2CC(c2ccccc2)c2ccccc2)cn1 (stereo not drawn) | 2.63% |
| COc1ccc(Cc2nc3ccc(C(=O)NC(C)c4cnn(C)c4)cc3o2)cc1 (stereo not drawn) | 3.16% |
| CN1C(=O)/C(=C2\SC(=S)N(C(CCC(=O)O)C(=O)O)C2=O)c2ccccc21 (stereo not drawn) | 11.6% |
| Cc1nn(-c2ccccc2)c2nc(-c3ccncc3)cc(C(=O)NCc3ccco3)c12 | -12.1% |
| COc1cccc(-n2c(SC)nnc2-c2cnccn2)c1 | -0.821% |
| CCN(CC)C(=O)CN(c1cc2c(cc1OC)oc1ccccc12)S(=O)(=O)c1ccc(C)cc1 | 0.322% |
| Cc1cccc(N2CCN(C(=O)C(C)n3nc(C)n4c(cc5occc54)c3=O)CC2)c1C (stereo not drawn) | 4.12% |
| CCNC(=O)CSc1nnc(-c2cccc(S(=O)(=O)N(CC)CC)c2)n1CCc1ccccc1 | -8.13% |
| N#Cc1ccc(COC(=O)c2ccc3c(c2)OCO3)cc1 | 10.1% |
| CCOc1ccc(Oc2cc(NC(=O)c3ccco3)cc([N+](=O)[O-])c2)cc1 | 13.1% |
| CN(CC(=O)Nc1ccc(Cl)cc1)C(=O)C1=COCCO1 | 10.4% |
| O=S(=O)(NCCc1csc(-c2cccnc2)n1)c1cc(F)ccc1F | 10.4% |
| C/C(=N/NC(=O)c1ccccc1)c1ccc(NC(=O)C(F)(F)F)cc1 | 9.45% |
| COc1ccc(CCNC(=O)c2cn3ccc(C)cc3n2)cc1OC | 8.16% |
| Cc1ccccc1CN1CCc2c(OCC(=O)N3CCCCC3)cccc2C1=O | 9.63% |
| Brc1ccc(-c2nc(N/N=C/c3cccnc3)c3ccccc3n2)cc1 | 7.44% |
| Cn1c(N)c(C(=O)COC(=O)c2nc(Cl)ccc2Cl)c(=O)n(C)c1=O | 2.82% |
| Cn1c(SCc2ccc(F)cc2)nnc1-c1ccncc1 | 13.8% |
| CCn1ncc(C2=NOC(C(=O)Nc3cccnc3)C2)c1C (stereo not drawn) | 3.33% |
| COc1cccc(C2CC(=O)Nc3n[nH]c(-c4ccccc4)c32)c1OC (stereo not drawn) | 5.66% |
| COc1ccc(NC(=O)Nc2c[nH]c(=O)[nH]c2=O)cc1OC | 14.6% |
| Cc1ccc2cccc(OCc3ccc(F)cc3)c2n1 | 7.62% |
| NS(=O)(=O)c1ccc(CNC(=O)c2csc3c2CCCC3)cc1 | 11% |
| COc1cc(C(=O)NCc2ccccn2)ccc1OCc1c(C)noc1C | 5.58% |
| O=C(Nc1ccc(Cl)c([N+](=O)[O-])c1)Nc1nc2ccccc2s1 | 11.5% |
| CC(C(=O)N1CCCc2c1c(=O)oc1ccc(O)cc21)N1CCc2ccccc2C1 (stereo not drawn) | -12.8% |
